# Assay results published in the supplement of paper PMC12217912.
# The other results are listed elsewhere or left out. Sequences were assembled here from the parent chain. Inactive controls read about 0.05.
# B1: TEV protease; numbered along this chain (parent)
# chain: MGESLFKGPRDYNPISSSICHLTNESDGHTTSLYGIGFGPFIITNKHLFRRNNGTLVVQSLHGVFKVKDTTTLQQHLVDGRDMIIIRMPKDFPPFPQKLKFREPQREERICLVTTNFQTKSMSSMVSDTSCTFPSGDGIFWKHWIQTKDGQCGSPLVSTRDGFIVGIHSASNFTNTNNYFTSVPKNFMELLTNQEAQQWVSGWRLNADSVLWGGHKVFMVKPEEPFQPVKEATQL
# Variants of: B1
# Assay: raw area under fraction-flipped curve 0-4 h after induction (AUC4h, not background-subtracted), DNA-recorder readout of cleavage of the substrate (dimensionless); higher = more cleavage of the substrate by the protease variant
# Conditions: temperature: 34 °C; time window: 0-4 h after rhamnose induction
# Protocol: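 In vivo DNA recorder in E. coli TOP10(DE3) ΔrhaA at 34 °C. Each TEVp single-site mutant (parent TEVp 0) is paired with a single-site variant of the 7-mer TEVs (canonical ENLYFQ|S). The substrate sits between flexible linkers in a Bxb1-sfGFP-TEVs-SsrA fusion, so cleavage stabilises Bxb1 and speeds flipping of a recombination array, read by NGS. The value is the raw area under the fraction-flipped curve over 0-4 h after rhamnose induction (AUC4h), with ≥20 reads per time point. It is not background-subtracted; inactive controls average about 0.047.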
# 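Further: Bxb1 expression induced with 0.2% (w/v) L-rhamnose at OD600 near 0.5, cultures sampled hourly, flipped fraction per protease–substrate barcode pair counted by paired-end Illumina sequencing.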
Variant,area with substrate ENLYCQS,area with substrate ENLYDQS,area with substrate ENLYGQS,area with substrate ENLYHQS,area with substrate ENLYIQS,area with substrate ENLYMQS,area with substrate ENLYQQS,area with substrate ENLYRQS,area with substrate ENLYWQS,area with substrate ENLYEQS,area with substrate ENLYKQS,area with substrate ENLYNQS,area with substrate ENLYTQS,area with substrate ENLYYQS,area with substrate ENLYAQS,area with substrate ENLYLQS,area with substrate ENLYPQS,area with substrate ENLYSQS,area with substrate ENLYVQS
MGESLSKGPRDYNPISSSICHLTNESDGHTTSLYGIGFGPFIITNKHLFRRNNGTLVVQSLHGVFKVKDTTTLQQHLVDGRDMIIIRMPKDFPPFPQKLKFREPQREERICLVTTNFQTKSMSSMVSDTSCTFPSGDGIFWKHWIQTKDGQCGSPLVSTRDGFIVGIHSASNFTNTNNYFTSVPKNFMELLTNQEAQQWVSGWRLNADSVLWGGHKVFMVKPEEPFQPVKEATQL [F6S],0.108,0.0659,0.0708,0.0742,0.126,0.0882,0.072,0.0687,0.0871,–,–,–,–,–,–,–,–,–,–
MGESLDKGPRDYNPISSSICHLTNESDGHTTSLYGIGFGPFIITNKHLFRRNNGTLVVQSLHGVFKVKDTTTLQQHLVDGRDMIIIRMPKDFPPFPQKLKFREPQREERICLVTTNFQTKSMSSMVSDTSCTFPSGDGIFWKHWIQTKDGQCGSPLVSTRDGFIVGIHSASNFTNTNNYFTSVPKNFMELLTNQEAQQWVSGWRLNADSVLWGGHKVFMVKPEEPFQPVKEATQL [F6D],0.072,–,0.0912,0.0584,0.0912,–,–,0.0615,0.0805,0.0675,0.0657,0.0679,0.0725,0.0583,–,–,–,–,–
MGESLFKGPRDYNPISSSICHLTNESDGHTTSLYGIGFGPFIITNKHLFRRNNGTLVVQSLHGVFKVKDTTTLQQHLVDGRDMIIIRMPKDFPPFPQKLKFREPQREERICLVTTNFQTKSMSSMVSDTSCTFPSGDGIFWKHWIQTKDGQCGSPLVSTRDGFIVGIHSASNFTNTNNYFTSVPKNFMELLTNQEAQQWVSGWRLNADSVLWGGHKVFMVKPEEPFQLVKEATQL [P228L],0.108,–,0.04,0.0556,–,–,0.0604,–,–,0.0701,–,–,0.112,–,0.078,0.057,–,–,–
MGESLFKGPRDYNPISSSICHLTNESDGHTTSLYGIGFGPFIITNKHLFRRNNGTLVVQSLHGVFKVKDTTTLQQHLVDGRDMIIIRMPKDFPPFPQKLKFREPQREERICLVTTNFQTKSMSSMVSDTSCTFPSGDGIFWKHWIQTKDGQCGSPLVSTRDGFIVGIHSASNFTNTNNYFTSVPKNFMELLTNQEAQQWVSGWRLNADSVLWGGHKVFMVKPEEPFQKVKEATQL [P228K],–,0.0755,0.0519,–,0.126,–,0.0628,0.0576,0.0535,0.098,–,0.0738,–,–,0.0808,–,0.0657,–,–
MGESLFKGPRDYNPISSSICHLTNESDGHTTSLYGIGFGPFIITNKHLFRRNNGTLVVQSLHGVFKVKDTTTLQQHLVDGRDMIIIRMPKDFPPFPQKLKFREPQREERICLVTTNFQTKSMSSMVSDTSCTFPSGDGIFWKHWIQTKDGQCGSPLVSTRDGFIVGIHSASNFTNTNNYFTSVPKNFMELLTNQEAQQWVSGWRLNADSVLWGGHKVFMVKPEEPFQPVQEATQL [K230Q],0.0817,0.0611,0.0793,0.063,0.13,0.0789,0.0556,0.0591,0.0883,–,0.0589,0.076,0.0682,0.0455,0.0782,–,0.0708,0.117,0.0966
MGESLFGGPRDYNPISSSICHLTNESDGHTTSLYGIGFGPFIITNKHLFRRNNGTLVVQSLHGVFKVKDTTTLQQHLVDGRDMIIIRMPKDFPPFPQKLKFREPQREERICLVTTNFQTKSMSSMVSDTSCTFPSGDGIFWKHWIQTKDGQCGSPLVSTRDGFIVGIHSASNFTNTNNYFTSVPKNFMELLTNQEAQQWVSGWRLNADSVLWGGHKVFMVKPEEPFQPVKEATQL [K7G],0.0892,0.0592,–,–,–,0.0937,0.0716,0.0651,0.0919,0.0603,0.0976,–,0.0656,0.0579,–,–,0.0752,0.0466,–
MGESLFKYPRDYNPISSSICHLTNESDGHTTSLYGIGFGPFIITNKHLFRRNNGTLVVQSLHGVFKVKDTTTLQQHLVDGRDMIIIRMPKDFPPFPQKLKFREPQREERICLVTTNFQTKSMSSMVSDTSCTFPSGDGIFWKHWIQTKDGQCGSPLVSTRDGFIVGIHSASNFTNTNNYFTSVPKNFMELLTNQEAQQWVSGWRLNADSVLWGGHKVFMVKPEEPFQPVKEATQL [G8Y],0.0767,–,–,–,–,–,–,–,–,–,–,–,–,–,–,–,–,–,–
MGESLFKGPRDYNPISSSICHLTNESDGHTTSLYGIGFGPFIITNKHLFRRNNGTLVVQSLHGVFKVKDTTTLQQHLVDGRDMIIIRMPKDFPPFPQKLKFREPQREERICLVTTNFQTKSMSSMVSDTSCTFPSGDGIFWKHWIQTKDGQCGSPLVSTRDGFIVGIHSASNFTNTNNYFTSVPKNFMELLTNQEAQQWVSGWRLNADSVLWGGHKVFMVKPEEEFQPVKEATQL [P225E],–,0.055,0.0699,0.0656,0.103,0.0861,–,–,0.0921,0.0782,–,–,0.0852,0.0617,0.0717,–,0.0687,0.053,–
MGESLFKGPRDYNPISSSICHLTNESDGHTTSLYGIGFGPFIITNKHLFRRNNGTLVVQSLHGVFKVKDTTTLQQHLVDGRDMIIIRMPKDFPPFPQKLKFREPQREERICLVTTNFQTKSMSSMVSDTSCTFPSGDGIFWKHWIQTKDGQCGSPLVSTRDGFIVGIHSASNFTNTNNYFTSVPKNFMELLTNQEAQQWVSGWRLNADSVLWGGHKVFMVKPEENFQPVKEATQL [P225N],0.0894,–,0.0611,0.0742,–,0.0875,0.0619,–,0.0816,0.0655,0.0656,0.0832,–,0.0552,0.0758,0.0687,0.0765,–,0.106
MGESLFKGPRDYNPISSSICHLTNESDGHTTSLYGIGFGPFIITNKHLFRRNNGTLVVQSLHGVFKVKDTTTLQQHLVDGRDMIIIRMPKDFPPFPQKLKFREPQREERICLVTTNFQTKSMSSMVSDTSCTFPSGDGIFWKHWIQTKDGQCGSPLVSTRDGFIVGIHSASNFTNTNNYFTSVPKNFMELLTNQEAQQWVSGWRLNADSVLWGGHKVFMVKPEEHFQPVKEATQL [P225H],–,–,0.0684,–,–,0.0754,–,0.0605,0.0702,0.0598,–,0.0714,0.0734,–,0.0697,–,–,0.0726,0.102
